Test results as given in PubChem BioAssay (Tox21).
This list was built around the results that the source calls inconclusive (neither active nor inactive); the mix of calls is not that of the screen. A potency beside an inconclusive call is a rough fit, not a confirmed value. The source made the active and inactive calls. Calls follow the shape of the dose curve; as a rule, active = well fitted cell-killing curve with a large enough effect in the repeat runs; inconclusive = weak or mixed curves; inactive = no such curve, though single readings can be large or run the other way. Bridge positions count the residues as written; N and C are the ends. Square brackets hold non-standard residues; d marks the D form. Peptide text beside a SMILES is read from it. * marks the point of attachment. X1 = CC[C@H](C)CCCCC(=O)*; Orn = NCCC[C@H](N)C(=O)O; Dab = NCC[C@H](N)C(=O)O; Mpa = O=C(O)CCS

Test: qHTS assay for identifying genotoxic compounds that show differential cytotoxicity against isogenic chicken DT40 cell lines with known DNA damage response pathways - Rad54/Ku70 mutant cell line (AID 743015); also: nearly all actives have a fitted effect of over 60% in size
Settings: DT40 Rad54/Ku70 mutant viability, CellTiter-Glo, 40 h; series mostly up to 66.8 µM
Potency is read from the fitted curve at half-maximal effect; tags tell the direction and shape of the fitted curve.

**Q.** Which Potency does the source give for `CC(=O)NC[C@H]1CN(c2ccc(N3CCOCC3)c(F)c2)C(=O)O1` here?
**A.** inconclusive: 33.5 µM [cytotoxic, partial curve, poor fit]

**Q.** Which Potency does the source give for `CCOC(=O)[C@H](CS)NCCN[C@@H](CS)C(=O)OCC` here?
**A.** inconclusive: 37.6 µM [cytotoxic, partial curve, poor fit]

**Q.** Which Potency does the source give for `CC(C)(O/N=C(\C(=O)N[C@@H]1C(=O)N2C(C(=O)[O-])=C(C[n+]3ccccc3)CS[C@H]12)c1csc(N)n1)C(=O)O` here?
**A.** inactive

**Q.** Which Potency does the source give for `CN(CC(=O)N1CCOCC1)Cc1c(Cl)cccc1NC(=O)c1ccccc1` here?
**A.** inconclusive: 29.8 µM [cytotoxic]

**Q.** Which Potency does the source give for `CCOc1ccc(C[C@H]2NC(=O)CCSSC[C@@H](C(=O)N3CCC[C@H]3C(=O)N[C@@H](CCCN)C(=O)NCC(N)=O)NC(=O)[C@H](CC(N)=O)NC(=O)[C@H]([C@@H](C)O)NC(=O)[C@H]([C@@H](C)CC)NC2=O)cc1` ([Mpa][dY](Et)ITNCP[Orn]G-NH2; disulfide 1-6) here?
**A.** inactive

**Q.** Which Potency does the source give for `C[C@H]1C[C@@H]2[C@H]([C@@H](O)C[C@@]3(C)[C@H]2CC[C@]3(O)C(=O)COC(=O)CCC(=O)O)[C@@]2(C)C=CC(=O)C=C12` here?
**A.** inactive

**Q.** Which Potency does the source give for `Nc1c(Br)cc(Br)cc1CNC1CCC(O)CC1` (configuration not stated) here?
**A.** inconclusive: 3.76 µM [cytotoxic, partial curve, poor fit]

**Q.** Which Potency does the source give for `CCOC(=O)c1cc(-c2ccccc2)nc2ccc(C)cc12` here?
**A.** inconclusive: 33.5 µM [cytotoxic, single point]

**Q.** For `C[C@@H]1C(=O)NC2=Nc3cccc(Cl)c3CN21`, which Potency is on record?
**A.** inactive

**Q.** Which Potency does the source give for `CC/C=C\C/C=C\C/C=C\C/C=C\C/C=C\C/C=C\CCC(=O)O` here?
**A.** inconclusive: 33.5 µM [cytotoxic, single point]

**Q.** Which Potency does the source give for `COC(=O)C1=C(C)NC(C)=C(C(=O)O[C@H]2CCN(Cc3ccccc3)C2)[C@H]1c1cccc([N+](=O)[O-])c1` here?
**A.** active: 13.3 µM

**Q.** Which Potency does the source give for `CC[C@H](C)CCCCC(=O)N[C@@H](CCN)C(=O)N[C@H](C(=O)N[C@@H](CCN)C(=O)N[C@H]1CCNC(=O)[C@H]([C@@H](C)O)NC(=O)[C@H](CCN)NC(=O)[C@H](CCN)NC(=O)[C@H](CC(C)C)NC(=O)[C@@H](CC(C)C)NC(=O)[C@H](CCN)NC1=O)[C@@H](C)O` (X1-[Dab]T[Dab][Dab][Dab][dL]L[Dab][Dab]T; lactam 4-C) here?
**A.** inconclusive: 33.5 µM [cytotoxic, partial curve, poor fit]
